This is one part of the list. At the low end of the ranking the order means little.

This note sets out measurements from paper PMC10668032.

The target in this assay is SIX1 homeodomain (reference allele) (UniProt Q15475). Briefly: universal protein binding microarray. Particulars: Universal all-10-mer PBM (8x60K, AMADID 030236), 300 nM GST-tagged protein, Alexa Fluor 488 anti-GST; buffer, salt, pH and temperature not stated; high values mean tight binding; most listed sequences are background and not binding sites; double strand, one strand shown.
Regarding ATACGTGG, the binding signal was 0.272 E-score. In the case of CAAAACAC, the binding signal was -0.0164 E-score. As for CTGCAAGC, the binding signal was -0.104 E-score. Next, GAAGCCGC: -0.00785 E-score.

ACATACCT: the binding signal stood at 0.065 E-score. Consider AACTAGTC, for which the binding signal was -0.166 E-score. The result for CAGGCGCA reads -0.154 E-score.

For CTATTCCA, the binding signal amounted to 0.0203 E-score. For the sequence ATGACCGC, the binding signal is -0.0542 E-score. With CAACTTCG, the binding signal is -0.0934 E-score. Turning to ATAAAACC, the binding signal worked out at 0.0786 E-score. For the sequence GTCCGGAA, the binding signal is -0.162 E-score. The result for ATCGAATG reads 0.0658 E-score. Turning to CTCTTCAC, the binding signal was determined as 0.103 E-score. Consider AAAATCCC, for which the binding signal amounted to 0.0865 E-score. For CTCACGAA, the binding signal is -0.142 E-score. Next, AGTGAGTG: -0.0564 E-score; GCTGGAAC: -0.338 E-score; AACCACAA: -0.16 E-score. For the sequence CATCCCCA, the binding signal was determined as 0.0561 E-score. GGCCCGCA: the binding signal is -0.15 E-score. Turning to GGGGTAGA, the binding signal came out at 0.158 E-score.

On to CAGGAAAC, for which the binding signal is -0.115 E-score.

For the sequence CCGTATTA, the binding signal came to 0.322 E-score.

For CCAGTCTA, the binding signal was -0.0989 E-score. As for AACCCCTG, the binding signal is -0.0306 E-score. For the sequence CATCGAAC, the binding signal was -0.0557 E-score. The result for GGCCCTTA reads -0.161 E-score; that for CCGTCGGA, 0.0258 E-score. Next, GTGACGTA: 0.00305 E-score; AGGCGTAC: -0.0669 E-score. Next, GCATAACA: -0.1 E-score; GTAATTGA: -0.00036 E-score. Turning to ATAGTAAG, the binding signal came to 0.0396 E-score. As to CTCTGATA, the binding signal was 0.312 E-score. On to AAAGCATT, for which the binding signal was -0.116 E-score. Regarding GCAATAGC, the binding signal is -0.0144 E-score. On to AATTCTGG, for which the binding signal is -0.0871 E-score. For CGTTAGAC, the binding signal was 0.0127 E-score. Consider ACCAGGGC, for which the binding signal is -0.159 E-score.

CAGCCTGA: the binding signal is -0.0882 E-score. Next, ACCGCAAC: 0.0379 E-score; ACCTTATG: -0.0053 E-score.

For the sequence CTCGTGGC, the binding signal was -0.156 E-score. In the case of GCATGACA, the binding signal was -0.0684 E-score. With ACATGCGT, the binding signal was -0.159 E-score. As to TCGTGAGA, the binding signal amounted to 0.211 E-score. Next, CACTTTAA: -0.0446 E-score; AGGCGTTA: -0.185 E-score; CACTCTGG: -0.0261 E-score. As for ACATCTAG, the binding signal stood at 0.0333 E-score. Turning to CATATAAG, the binding signal is 0.147 E-score. The result for AGCGGTAG reads -0.15 E-score; that for GACTCCCA, -0.233 E-score. Take ATACGCGA: the binding signal turned out to be 0.296 E-score. In the case of TCAATTAA, the binding signal is -0.0499 E-score.

As to GCAAGTAA, the binding signal was -0.0799 E-score. On to CGCGACCC, for which the binding signal came to 0.172 E-score. As for CAGAACTC, the binding signal is -0.175 E-score. AAAAACCT: the binding signal is -0.0824 E-score. GGCGCAAC: the binding signal was -0.244 E-score. The result for GCCAAATA reads -0.00988 E-score; that for CATATTAG, 0.191 E-score; that for ACACTGGG, 0.0696 E-score. Regarding ATTGCAAA, the binding signal is -0.165 E-score. The result for AGGTCTCC reads -0.0742 E-score; that for AATGGCGT, -0.0397 E-score; that for AGTTAGTC, -0.252 E-score. GTGATAGA: the binding signal was found to be 0.0959 E-score.

AGGGTCGC: the binding signal was -0.057 E-score. Take ACCAGGTA: the binding signal was 0.00634 E-score.

As for GGCAAGAC, the binding signal is -0.0555 E-score. With GCGCGAGA, the binding signal is 0.0119 E-score. As for AACGTTGC, the binding signal was -0.194 E-score. Turning to CGAGAACA, the binding signal was -0.0357 E-score. Consider ATTTCTAC, for which the binding signal was -0.197 E-score. CGTAGTAG: the binding signal is -0.12 E-score. With CGCTTGTA, the binding signal was -0.194 E-score. Take GTTCACTA: the binding signal was -0.209 E-score.

With AGGCTAAT, the binding signal was -0.0147 E-score. Regarding AGTGCAGC, the binding signal is -0.199 E-score. In the case of GATCACCA, the binding signal stood at 0.334 E-score. As for AGGAACAA, the binding signal was -0.0494 E-score.

For ATACTATC, the binding signal is 0.401 E-score.

Turning to GACGCCGA, the binding signal was 0.0316 E-score. In the case of ACCTCCGG, the binding signal was 0.148 E-score. As to CTCCCCAG, the binding signal was 0.0437 E-score.

As for CCCTATCA, the binding signal was determined as 0.429 E-score. As for CATAGTCC, the binding signal is -0.112 E-score.

As for GCGAGCAA, the binding signal is -0.0421 E-score. Consider CTGCGTTA, for which the binding signal is -0.0109 E-score. As for GGGTTTAC, the binding signal is 0.029 E-score. Regarding CGCCCTAA, the binding signal is -0.139 E-score.

ATAACTCA: the binding signal came out at 0.00299 E-score. As for CATAGATC, the binding signal stood at 0.249 E-score. Regarding AGCCACCC, the binding signal amounted to 0.138 E-score.

In the case of GGTCATAC, the binding signal turned out to be 0.0523 E-score.

Consider GGTGACAA, for which the binding signal is -0.059 E-score.

For CGACGTCG, the binding signal is -0.0969 E-score. For the sequence GCGCCTCC, the binding signal was -0.0789 E-score. Regarding ACCTCCAC, the binding signal is 0.0581 E-score. AAGGTTAA: the binding signal is -0.185 E-score. For the sequence AAACCTGA, the binding signal is -0.0717 E-score. Turning to GTTGCCGA, the binding signal is -0.286 E-score.

Regarding CACCGCTG, the binding signal is -0.0451 E-score. Turning to CATTAACA, the binding signal was -0.0626 E-score.

Regarding CCCTCTAA, the binding signal is -0.0629 E-score. Consider GTAAACCA, for which the binding signal was 0.0641 E-score.

For the sequence AGGATTGG, the binding signal was -0.00881 E-score. As to ATTCCCTC, the binding signal was found to be 0.0038 E-score.

Consider ACTTACCG, for which the binding signal turned out to be 0.152 E-score.

With CTAGGTAA, the binding signal is -0.143 E-score.

Take AGCGAAGG: the binding signal was -0.178 E-score. Turning to CAGTGATC, the binding signal is 0.382 E-score. The result for ACTTGGCT reads -0.196 E-score; that for CCGGGCAG, 0.0688 E-score. As for ACAGGCAG, the binding signal is -0.0735 E-score. As for ACCGTGTA, the binding signal was determined as 0.0874 E-score. For the sequence ATCTAGCC, the binding signal stood at 0.18 E-score.

As to AGCGCGGC, the binding signal is -0.236 E-score. With GGGTTCGA, the binding signal worked out at 0.0642 E-score. Take TCTATAGA: the binding signal is 0.126 E-score.

In the case of ACCGGCAG, the binding signal is -0.0528 E-score.

As to GAGGGTAC, the binding signal was found to be 0.0142 E-score. With AGAACCGA, the binding signal amounted to 0.0277 E-score. As to TAATTGGA, the binding signal was -0.0559 E-score.

On to CGCAGGTC, for which the binding signal is -0.138 E-score. On to CATATTGC, for which the binding signal was 0.0469 E-score. The result for AGTAATAG reads -0.0417 E-score. The result for CAAGCACG reads -0.233 E-score; that for CACTACGG, -0.0195 E-score; that for GACGTATC, 0.42 E-score.

Regarding GTTATGAA, the binding signal is -0.0671 E-score. Consider CCCTGTAA, for which the binding signal is -0.194 E-score.

For the sequence GGACGTCA, the binding signal is -0.118 E-score. Take CGGGGTAC: the binding signal came to 0.052 E-score. Next, TAATACGA: 0.276 E-score; CGCTTACC: -0.112 E-score; ATGGCTAA: 0.135 E-score. The result for ATACAGAC reads 0.116 E-score; that for CGTCACCC, -0.218 E-score. As for CTGAATGA, the binding signal was found to be 0.0226 E-score. Take CCGCTTTC: the binding signal is -0.131 E-score.

With AACTTCAA, the binding signal was -0.18 E-score. With ATCAGATG, the binding signal worked out at 0.319 E-score.

As to AGAGAATG, the binding signal was -0.161 E-score.

In the case of CCCCCAAC, the binding signal was -0.103 E-score.

For ACCAGACG, the binding signal is -0.0492 E-score. ACGCAGGC: the binding signal stood at 0.0252 E-score. With AAGAGCAG, the binding signal was -0.0965 E-score. With AAGTCCAC, the binding signal was -0.269 E-score. For the sequence AACGTTGT, the binding signal is -0.199 E-score. Next, TACGGCTA: 0.185 E-score; CGGTGCAC: -0.0361 E-score; CGACGACG: -0.259 E-score. As for AGGTTCTA, the binding signal came to 0.0305 E-score. Next, GTAGCTAC: -0.114 E-score.

With CTTACACA, the binding signal was -0.0023 E-score. Next, AAGCTCCA: -0.154 E-score; ACCCTTCG: -0.106 E-score. On to TACAAGGA, for which the binding signal was determined as 0.136 E-score. The result for CCCGGCGA reads 0.0761 E-score. As to AATATCGA, the binding signal was 0.241 E-score. In the case of GATAGCGA, the binding signal was determined as 0.251 E-score. In the case of CGACCACC, the binding signal is -0.0471 E-score. Next, GCGTTTGA: -0.301 E-score; CCGTAGCA: 0.0604 E-score. For the sequence GGTCGGAC, the binding signal is -0.0598 E-score. For CCCTAGTA, the binding signal was 0.106 E-score. For the sequence CTGCTTAC, the binding signal was -0.168 E-score.

For ATAAGGGG, the binding signal was determined as 0.00055 E-score.

With AAAACCTC, the binding signal is -0.0345 E-score.
